These results are taken from paper PMC6005816.

By UniProt entry, the sequences of proteins in these tests, tags left out. Where a name states a change or a piece, a line headed by the entry shows the natural chain unless it says otherwise.
UniProt O60826: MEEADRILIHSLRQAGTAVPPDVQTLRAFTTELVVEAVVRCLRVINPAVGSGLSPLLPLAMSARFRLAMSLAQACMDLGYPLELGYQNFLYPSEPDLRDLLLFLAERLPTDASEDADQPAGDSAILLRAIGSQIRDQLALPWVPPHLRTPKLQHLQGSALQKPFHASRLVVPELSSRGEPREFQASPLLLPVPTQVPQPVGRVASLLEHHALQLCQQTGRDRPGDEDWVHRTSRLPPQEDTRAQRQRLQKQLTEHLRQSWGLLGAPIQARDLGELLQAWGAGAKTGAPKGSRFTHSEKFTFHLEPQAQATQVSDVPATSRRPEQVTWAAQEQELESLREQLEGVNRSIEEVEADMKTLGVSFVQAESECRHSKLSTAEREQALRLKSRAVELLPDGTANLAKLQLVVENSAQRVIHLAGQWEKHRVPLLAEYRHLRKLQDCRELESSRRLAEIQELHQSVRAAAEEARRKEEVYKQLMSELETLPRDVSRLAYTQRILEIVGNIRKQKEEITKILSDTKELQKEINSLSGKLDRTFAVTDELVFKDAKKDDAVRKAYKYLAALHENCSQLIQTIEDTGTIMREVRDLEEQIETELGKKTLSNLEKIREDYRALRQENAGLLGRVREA
UniProt Q7Z3E2: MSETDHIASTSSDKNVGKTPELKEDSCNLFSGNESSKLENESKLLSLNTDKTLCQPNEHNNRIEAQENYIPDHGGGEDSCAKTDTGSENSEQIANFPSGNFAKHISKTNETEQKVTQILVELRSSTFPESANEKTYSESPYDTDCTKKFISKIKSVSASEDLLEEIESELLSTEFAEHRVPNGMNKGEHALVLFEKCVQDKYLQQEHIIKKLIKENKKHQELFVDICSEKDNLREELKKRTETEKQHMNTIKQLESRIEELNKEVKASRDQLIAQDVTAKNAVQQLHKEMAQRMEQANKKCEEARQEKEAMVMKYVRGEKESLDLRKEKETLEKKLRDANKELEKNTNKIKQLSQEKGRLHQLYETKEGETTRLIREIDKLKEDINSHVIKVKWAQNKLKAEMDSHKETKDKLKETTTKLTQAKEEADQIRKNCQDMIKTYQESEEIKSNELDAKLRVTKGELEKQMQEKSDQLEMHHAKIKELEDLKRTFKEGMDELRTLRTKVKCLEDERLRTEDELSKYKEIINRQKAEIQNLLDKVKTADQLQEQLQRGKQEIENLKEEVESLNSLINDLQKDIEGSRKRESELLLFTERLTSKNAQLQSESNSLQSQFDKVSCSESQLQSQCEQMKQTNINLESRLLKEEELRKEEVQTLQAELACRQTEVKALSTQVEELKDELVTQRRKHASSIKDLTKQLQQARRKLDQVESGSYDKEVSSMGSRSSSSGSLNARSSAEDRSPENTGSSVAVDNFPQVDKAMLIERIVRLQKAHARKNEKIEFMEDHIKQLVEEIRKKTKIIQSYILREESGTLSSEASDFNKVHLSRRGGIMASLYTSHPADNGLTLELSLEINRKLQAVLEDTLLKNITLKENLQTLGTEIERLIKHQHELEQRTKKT

These are yes or no findings as the source states them, for the method shown. In cells and extracts the contact can be indirect. Some binding calls cover weakened binding; strength is not graded here. Sequences can lack the tags named with a protein.

To fix the notation:
B1: myc-VPS54, in vitro translated (protein, UniProt Q9P1Q0 1-977)
chain: MASSHSSSPVPQGSSSDVFFKIEVDPSKHIRPVPSLPDVCPKEPTGDSHSLYVAPSLVTDQHRWTVYHSKVNLPAALNDPRLAKRESDFFTKTWGLDFVDTEVIPSFYLPQISKEHFTVYQQEISQREKIHERCKNICPPKDTFERTLLHTHDKSRTDLEQVPKIFMKPDFALDDSLTFNSVLPWSHFNTAGGKGNRDAASSKLLQEKLSHYLDIVEVNIAHQISLRSEAFFHAMTSQHELQDYLRKTSQAVKMLRDKIAQIDKVMCEGSLHILRLALTRNNCVKVYNKLKLMATVHQTQPTVQVLLSTSEFVGALDLIATTQEVLQQELQGIHSFRHLGSQLCELEKLIDKMMIAEFSTYSHSDLNRPLEDDCQVLEEERLISLVFGLLKQRKLNFLEIYGEKMVITAKNIIKQCVINKVSQTEEIDTDVVVKLADQMRMLNFPQWFDLLKDIFSKFTIFLQRVKATLNIIHSVVLSVLDKNQRTRELEEISQQKNAAKDNSLDTEVAYLIHEGMFISDAFGEGELTPIAVDTTSQRNASPNSEPCSSDSVSEPECTTDSSSSKEHTSSSAIPGGVDIMVSEDMKLTDSELGKLANNIQELLYSASDICHDRAVKFLMSRAKDGFLEKLNSMEFITLSRLMETFILDTEQICGRKSTSLLGALQSQAIKFVNRFHEERKTKLSLLLDNERWKQADVPAEFQDLVDSLSDGKIALPEKKSGATEERKPAEVLIVEGQQYAVVGTVLLLIRIILEYCQCVDNIPSVTTDMLTRLSDLLKYFNSRSCQLVLGAGALQVVGLKTITTKNLALSSRCLQLIVHYIPVIRAHFEARLPPKQYSMLRHFDHITKDYHDHIAEISAKLVAIMDSLFDKLLSKYEVKAPVPSACFRNICKQMTKMHEAIFDLLPEEQTQMLFLRINASYKLHLKKQLSHLNVINDGGPQNGLVTADVAFYTGNLQALKGLKDLDLNMAEIWEQKR
B2: myc-VPS51, in vitro translated (protein, UniProt Q9UID3 1-782)
chain: MAAAAAAGPSPGSGPGDSPEGPEGEAPERRRKAHGMLKLYYGLSEGEAAGRPAGPDPLDPTDLNGAHFDPEVYLDKLRRECPLAQLMDSETDMVRQIRALDSDMQTLVYENYNKFISATDTIRKMKNDFRKMEDEMDRLATNMAVITDFSARISATLQDRHERITKLAGVHALLRKLQFLFELPSRLTKCVELGAYGQAVRYQGRAQAVLQQYQHLPSFRAIQDDCQVITARLAQQLRQRFREGGSGAPEQAECVELLLALGEPAEELCEEFLAHARGRLEKELRNLEAELGPSPPAPDVLEFTDHGGSGFVGGLCQVAAAYQELFAAQGPAGAEKLAAFARQLGSRYFALVERRLAQEQGGGDNSLLVRALDRFHRRLRAPGALLAAAGLADAATEIVERVARERLGHHLQGLRAAFLGCLTDVRQALAAPRVAGKEGPGLAELLANVASSILSHIKASLAAVHLFTAKEVSFSNKPYFRGEFCSQGVREGLIVGFVHSMCQTAQSFCDSPGEKGGATPPALLLLLSRLCLDYETATISYILTLTDEQFLVQDQFPVTPVSTLCAEARETARRLLTHYVKVQGLVISQMLRKSVETRDWLSTLEPRNVRAVMKRVVEDTTAIDVQVGLLYEEGVRKAQSSDSSKRTFSVYSSSRQQGRYAPSYTPSAPMDTNLLSNIQKLFSERIDVFSPVEFNKVSVLTGIIKISLKTLLECVRLRTFGRFGLQQVQVDCHFLQLYLWRFVADEELVHLLLDEVVASAALRCPDPVPMEPSVVEVICERG
B3: myc-CCDC138 (protein, UniProt Q96M89 1-665)
chain: MEPRVVKPPGQDLVVESLKSRYGLGGSCPDEYDFSNFYQSKYKRRTLTSPGDLDIYSGDKVGSSLKYSDESKHCRTPLGSLFKHVNVNCLDDELDSFHDLKKQETEEELIENDYRVSTSKITKQSFKEIEKVALPTNTTSSRPRTECCSDAGDSPLKPVSCPKSKASDKRSLLPHQISQIYDELFQIHLKLQCETAAQQKFAEELQKRERFLLEREQLLFRHENALSKIKGVEEEVLTRFQIIKEQHDAEVEHLTEVLKEKNKETKRLRSSFDALKELNDTLKKQLNEASEENRKIDIQAKRVQARLDNLQRKYEFMTIQRLKGSSHAVHEMKSLKQEKAPVSKTYKVPLNGQVYELLTVFMDWISDHHLSKVKHEESGMDGKKPQLKFASQRNDIQEKCVKLLPLMTEQLQWMPFVNIKLHEPFVKFIYWSLRQLDAGAQHSTMTSTLRRLGEDIFKGVVTKGIQDNSPQHSVENKPKTAAFFKSSNLPLRFLSTLIVLKTVTQADYLAQAFDSLCLDLKTEEGKTLFLEYQAVPVILSHLRISSKGLLSNVIDSLLQMTVESKSLQPFLEACSNSLFFRTCSVLLRAPKLDLQILEKLSIILQKLSKIKSNKKLFELFTIHLMLQEIQRTTNPEHAFLCINLNSTLFNLGLTKCNSLVSSASP
B4: FLAG-VIPAR (protein, UniProt Q9H9C1 1-493)
chain: MNRTKGDEEEYWNSSKFKAFTFDDEDDELSQLKESKRAVNSLRDFVDDDDDDDLERVSWSGEPVGSISWSIRETAGNSGSTHEGREQLKSRNSFSSYAQLPKPTSTYSLSSFFRGRTRPGSFQSLSDALSDTPAKSYAPELGRPKGEYRDYSNDWSPSDTVRRLRKGKVCSLERFRSLQDKLQLLEEAVSMHDGNVITAVLIFLKRTLSKEILFRELEVRQVALRHLIHFLKEIGDQKLLLDLFRFLDRTEELALSHYREHLNIQDPDKRKEFLKTCVGLPFSAEDSAHIQDHYTLLERQIIIEANDRHLESAGQTEIFRKHPRKASILNMPLVTTLFYSCFYHYTEAEGTFSSPVNLKKTFKIPDKQYVLTALAARAKLRAWNDVDALFTTKNWLGYTKKRAPIGFHRVVEILHKNNAPVQILQEYVNLVEDVDTKLNLATKFKCHDVVIDTYRDLKDRQQLLAYRSKVDKGSAEEEKIDALLSSSQIRWKN
B5: myc-GRIPAP1 (protein, UniProt Q4V328 1-841)
chain: MAQALSEEEFQRMQAQLLELRTNNYQLSDELRKNGVELTSLRQKVAYLDKEFSKAQKALSKSKKAQEVEVLLSENEMLQAKLHSQEEDFRLQNSTLMAEFSKLCSQMEQLEQENQQLKEGAAGAGVAQAGPLVDGELLRLQAENTALQKNVAALQERYGKEAGKFSAVSEGQGDPPGGLAPTVLAPMPLAEVELKWEMEKEEKRLLWEQLQGLESSKQAETSRLQEELAKLSEKLKKKQESFCRLQTEKETLFNDSRNKIEELQQRKEADHKAQLARTQKLQQELEAANQSLAELRDQRQGERLEHAAALRALQDQVSIQSADAQEQVEGLLAENNALRTSLAALEQIQTAKTQELNMLREQTTGLAAELQQQQAEYEDLMGQKDDLNSQLQESLRANSRLLEQLQEIGQEKEQLTQELQEARKSAEKRKAMLDELAMETLQEKSQHKEELGAVRLRHEKEVLGVRARYERELRELHEDKKRQEEELRGQIREEKARTRELETLQQTVEELQAQVHSMDGAKGWFERRLKEAEESLQQQQQEQEEALKQCREQHAAELKGKEEELQDVRDQLEQAQEERDCHLKTISSLKQEVKDTVDGQRILEKKGSAALKDLKRQLHLERKRADKLQERLQDILTNSKSRSGLEELVLSEMNSPSRTQTGDSSSISSFSYREILREKESSAVPARSLSSSPQAQPPRPAELSDEEVAELFQRLAETQQEKWMLEEKVKHLEVSSASMAEDLCRKSAIIETYVMDSRIDVSVAAGHTDRSGLGSVLRDLVKPGDENLREMNKKLQNMLEEQLTKNMHLHKDMEVLSQEIVRLSKECVGPPDPDLEPGETS

In one assay the target is T1, VPS33B/GST-VIPAR complex (UniProt Q9H267).
T1 sequence 1: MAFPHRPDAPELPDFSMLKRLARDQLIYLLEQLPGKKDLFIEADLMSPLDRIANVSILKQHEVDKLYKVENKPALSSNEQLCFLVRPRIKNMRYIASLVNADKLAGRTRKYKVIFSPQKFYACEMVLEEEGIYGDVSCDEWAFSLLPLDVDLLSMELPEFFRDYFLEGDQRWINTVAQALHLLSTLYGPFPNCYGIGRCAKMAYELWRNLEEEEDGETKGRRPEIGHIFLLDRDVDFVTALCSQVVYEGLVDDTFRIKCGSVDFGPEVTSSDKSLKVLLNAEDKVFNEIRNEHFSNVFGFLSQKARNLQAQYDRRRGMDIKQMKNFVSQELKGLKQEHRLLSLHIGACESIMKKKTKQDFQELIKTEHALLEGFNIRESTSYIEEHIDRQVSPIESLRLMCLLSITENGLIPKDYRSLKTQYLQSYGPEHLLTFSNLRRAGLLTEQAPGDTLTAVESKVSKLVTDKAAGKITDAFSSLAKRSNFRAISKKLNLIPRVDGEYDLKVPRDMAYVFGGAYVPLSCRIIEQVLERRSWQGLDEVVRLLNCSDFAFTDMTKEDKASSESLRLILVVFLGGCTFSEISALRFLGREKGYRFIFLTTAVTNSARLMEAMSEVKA
T1 sequence 2: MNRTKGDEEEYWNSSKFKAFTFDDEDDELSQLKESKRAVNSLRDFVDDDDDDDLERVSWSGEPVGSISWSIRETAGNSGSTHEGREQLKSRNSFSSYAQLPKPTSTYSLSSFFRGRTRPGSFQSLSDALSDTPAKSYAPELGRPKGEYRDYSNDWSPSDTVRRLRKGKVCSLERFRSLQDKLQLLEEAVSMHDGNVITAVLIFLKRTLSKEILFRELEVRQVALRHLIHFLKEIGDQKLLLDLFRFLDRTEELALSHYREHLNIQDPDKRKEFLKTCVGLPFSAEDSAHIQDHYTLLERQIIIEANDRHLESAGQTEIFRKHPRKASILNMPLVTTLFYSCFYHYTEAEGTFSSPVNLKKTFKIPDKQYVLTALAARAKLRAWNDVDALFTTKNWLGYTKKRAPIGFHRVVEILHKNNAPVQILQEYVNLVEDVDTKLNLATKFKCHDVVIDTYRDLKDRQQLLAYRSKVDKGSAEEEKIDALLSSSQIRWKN
Description: pull-down; GST pull-down with 40–100 pmol purified VPS33B/GST-VIPAR complex as bait; myc-tagged prey made by in vitro transcription/translation in wheat germ lysate; anti-myc immunoblot; only the target purified.
As to “myc-CCDC22 E239K, in vitro translated (from UniProt O60826 1-627)”, the binding result is recorded as “binds”.

In the case of “myc-CCDC22 R321W, in vitro translated (from UniProt O60826 1-627)”, the binding entry is “binds”.

As to “myc-CCDC22 T17A, in vitro translated (from UniProt O60826 1-627)”, the binding entry was “binds”.

For the molecule “myc-CCDC22 T30A, in vitro translated (from UniProt O60826 1-627)”, the binding entry is reported as “binds”.

For “myc-CCDC22 R128Q, in vitro translated (from UniProt O60826 1-627)”, the binding entry was “binds”.

With “myc-CCDC22, in vitro translated (from UniProt O60826 1-627)”, the binding result is reported as “binds”.

Take B1: the binding entry was “no binding”.

On to B2, for which the binding entry is recorded as “no binding”.

For another assay, the target named is T2, VPS33B-GFP (human) (UniProt Q9H267).
T2 sequence: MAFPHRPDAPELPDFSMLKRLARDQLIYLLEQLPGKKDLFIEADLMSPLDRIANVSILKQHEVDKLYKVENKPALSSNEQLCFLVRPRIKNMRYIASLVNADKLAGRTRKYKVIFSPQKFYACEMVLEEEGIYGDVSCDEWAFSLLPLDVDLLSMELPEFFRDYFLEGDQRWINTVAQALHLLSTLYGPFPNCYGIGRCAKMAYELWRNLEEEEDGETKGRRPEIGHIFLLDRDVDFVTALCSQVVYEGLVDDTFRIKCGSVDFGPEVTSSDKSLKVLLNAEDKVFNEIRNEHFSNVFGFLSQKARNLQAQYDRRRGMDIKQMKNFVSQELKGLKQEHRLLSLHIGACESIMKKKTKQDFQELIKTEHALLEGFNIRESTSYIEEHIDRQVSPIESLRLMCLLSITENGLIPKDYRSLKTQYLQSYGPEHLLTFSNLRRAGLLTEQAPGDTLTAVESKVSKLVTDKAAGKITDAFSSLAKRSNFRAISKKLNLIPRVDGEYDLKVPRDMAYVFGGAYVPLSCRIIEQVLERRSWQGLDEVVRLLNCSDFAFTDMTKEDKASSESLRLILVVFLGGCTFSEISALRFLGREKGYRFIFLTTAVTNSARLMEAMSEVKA
Description: co-IP; GFP-Trap on lysates of HEK293T cells co-transfected with VPS33B-GFP, FLAG-VIPAR and one myc-tagged candidate; buffer contained EDTA; immunoblotting. For orientation: In western blotting, separated proteins are transferred to a membrane and probed.
For the molecule myc-CCDC186 (from UniProt Q7Z3E2 1-898), the binding result is on record as “no binding”.

As for B3, the binding entry is given as “no binding”.

For B4, the binding entry is on record as “binds”.

With B5, the binding result is on record as “no binding”.
